Experimental data as given in the antibiotic and cytotoxicity screens of Wong et al. (2023).
This is one part of the list.

These compounds were tested on S. aureus RN4220 (assay: growth inhibition call (relative growth <= 0.2)). Details: 50 µM.

Growth inhibition call, inactive:
COc1ccc2c3c([nH]c2c1)[C@@H](CO)N(C[C@]13CCN(CC1)Cc1ccccc1)C(=O)CN1CCOCC1
Cc1ccc(-c2cnc3c(c2)C(=O)N([C@@H](C)CO)C[C@H](C)[C@@H](CN(C)C(=O)Cc2cccnc2)O3)cc1
C[C@@H]1CN([C@H](C)CO)C(=O)Cc2cc(NC(=O)CCN3CCOCC3)ccc2O[C@@H]1CN(C)Cc1ccc(C(=O)Nc2ccccc2N)cc1
CCOC(=O)N1CCC(NS(=O)(=O)c2cccc(S(=O)(=O)[C@H]3CCS(=O)(=O)C3)c2)CC1
COc1ccc(S(=O)(=O)Nc2cccc3c2O[C@@H](CN(C)S(=O)(=O)c2ccc(C)cc2)[C@@H](C)CN([C@@H](C)CO)C3=O)cc1
O=C1NC[C@@H]2CN(C(=O)c3cnccn3)C[C@@H]12
C[C@@H]1CN([C@@H](C)CO)C(=O)c2cccc(NS(=O)(=O)c3ccc(F)cc3)c2O[C@H]1CN(C)Cc1ccncc1
CS(=O)(=O)NC[C@@H]1OC[C@@H]2CN(C(=O)c3ccnnc3)CC[C@@H]21
COC(=O)C1=CO[C@@H](O[C@@H]2O[C@H](CO)[C@@H](O)[C@H](O)[C@H]2O)/C(=C\CO)[C@@H]1CC(=O)OCCc1ccc(O)cc1
C[C@H](CO)N1C[C@H](C)[C@H](CN(C)S(C)(=O)=O)Oc2ncc(C#CC(C)(C)O)cc2C1=O
C[C@H]1CN([C@@H](C)CO)C(=O)CCCn2cc(nn2)CO[C@H]1CN(C)C(=O)C1CC1
COc1ccc(CN(C)C[C@@H]2Oc3ccc(NC(=O)CCN4CCOCC4)cc3C(=O)N([C@@H](C)CO)C[C@@H]2C)cc1
C[C@@H]1CCCCO[C@H](CN(C)C(=O)Nc2ccc(F)cc2)[C@H](C)CN([C@@H](C)CO)C(=O)c2cc(NS(=O)(=O)c3cccs3)ccc2O1
O=C1NCCOc2ccc([N+](=O)[O-])cc21
C[C@@H]1CN([C@@H](C)CO)C(=O)Cc2cc(NC(=O)CCN3CCOCC3)ccc2O[C@H]1CN(C)C(=O)Nc1ccc2c(c1)OCO2
O=C(N[C@@H]1C=C[C@@H](CC(=O)N2CCOCC2)O[C@H]1CO)c1ccccn1
COc1ccc(-c2nc3cc(C4=NNC(=O)CC4C)ccc3[nH]2)cc1 (stereo not given)
C[C@@H]1CN([C@@H](C)CO)C(=O)c2cc(C#CCN(C)C)cnc2O[C@H]1CN(C)S(=O)(=O)c1ccccc1
C[C@@H]1CN([C@@H](C)CO)C(=O)c2cc(NC(=O)Nc3ccc(C(F)(F)F)cc3)ccc2O[C@@H](C)CCCCO[C@H]1CN(C)Cc1ccc2c(c1)OCO2
Cc1noc(C)c1NC(=O)N(C)C[C@@H]1Oc2ccc(NS(=O)(=O)c3ccccc3)cc2C(=O)N([C@@H](C)CO)C[C@@H]1C
CCCNC(=O)N[C@H]1C=C[C@H](CC(=O)N2CCN(C)CC2)O[C@@H]1CO
COC(=O)C[C@](O)(CCCC(C)(C)O)C(=O)O[C@@H]1C(OC)=C[C@]23CCCN2CCc2cc4c(cc2[C@H]13)OCO4
C[C@@H]1CCCCO[C@@H](CN(C)C(=O)CCCN(C)C)[C@H](C)CN([C@@H](C)CO)C(=O)c2cc(NC(=O)Nc3ccc(C(F)(F)F)cc3)ccc2O1
C[C@@H]1CN([C@H](C)CO)C(=O)c2cc(NC(=O)c3ccccc3)ccc2O[C@@H](C)CCCCO[C@H]1CN(C)Cc1ccc2c(c1)OCO2
C[C@@H]1CCCCO[C@@H](CN(C)S(=O)(=O)c2cccs2)[C@H](C)CN([C@H](C)CO)C(=O)c2cc(NC(=O)Nc3ccc(F)cc3)ccc2O1
COc1ccc(COC[C@]23N=C4SCCCN4[C@H](c4ccccc4O2)[C@H]3CO[Si](C)(C)C(C)(C)C)cc1
C[C@@H]1CN([C@@H](C)CO)C(=O)c2cc(NS(=O)(=O)c3cn(C)cn3)ccc2O[C@@H](C)CCCCO[C@H]1CN(C)S(=O)(=O)c1cn(C)cn1
C[C@H]1CN([C@@H](C)CO)C(=O)Cc2cc(NS(C)(=O)=O)ccc2O[C@H]1CN(C)C(=O)Nc1ccc2c(c1)OCO2
COc1ccc(S(=O)(=O)N(C)C[C@@H]2Oc3ccc(NS(=O)(=O)c4ccc(F)cc4)cc3C(=O)N([C@H](C)CO)C[C@H]2C)cc1
O=C(C[C@H]1CC[C@@H]2[C@H](COC[C@@H](O)CN2C(=O)Nc2ccc3c(c2)OCO3)O1)N1CCN(c2ccccc2)CC1
C[C@@H]1CCCCO[C@@H](CN(C)C(=O)c2ccccc2)[C@@H](C)CN([C@H](C)CO)C(=O)c2cc(NC(=O)Nc3ccc4c(c3)OCO4)ccc2O1
O=C1O[C@H](c2ccccc2)[C@H](c2ccccc2)N2[C@H]1[C@@H](C(=O)Nc1nc3ccccc3s1)[C@]1(C(=O)Nc3ccccc31)[C@H]2c1ccc(OCCO)cc1
C[C@@H]1CCCCO[C@@H](CN(C)Cc2ccc(C(F)(F)F)cc2)[C@@H](C)CN([C@H](C)CO)C(=O)c2cc(NC(=O)NC3CCCCC3)ccc2O1
CCNc1nc(NCC)nc(OCC#N)n1
C[C@@H]1CCCCO[C@H](CN(C)Cc2ccccc2)[C@H](C)CN([C@H](C)CO)C(=O)c2cc(NS(=O)(=O)c3ccccc3)ccc2O1
C[C@H]1CN([C@@H](C)CO)C(=O)c2cc(NC(=O)CCC(F)(F)F)ccc2O[C@H]1CN(C)S(=O)(=O)c1cn(C)cn1
CC1=CC2=NC(=O)C[C@](C)(C(=O)O)N2C=C1
Cc1ccc(S(=O)(=O)Nc2ccc3c(c2)C(=O)N([C@H](C)CO)C[C@H](C)[C@H](CN(C)Cc2ccc4c(c2)OCO4)OCCCC[C@H](C)O3)cc1
C[C@@H]1CCCCO[C@H](CN(C)C(=O)Nc2ccc(F)cc2)[C@@H](C)CN([C@H](C)CO)C(=O)c2cc(NC(=O)Nc3ccc(C(F)(F)F)cc3)ccc2O1
Cc1noc(C)c1NC(=O)Nc1ccc2c(c1)CC(=O)N([C@H](C)CO)C[C@H](C)[C@@H](CN(C)S(=O)(=O)c1ccccc1)O2
